Substrate in series [1]: O=C1c2cccc3cccc(c23)C(=O)N1CC1CC1
Briefly: Enzyme kinetic analysis of NCN 4-hydroxylation in CYP3A4. In kind it is biochemical, human. The note with it: other: NCN 4-hydroxylation, enzyme source CYP3A4; 37.0 °C. The method, then: (§1) 1.6. P450 reaction phenotyping and chemical inhibition assays
(§2) P450 reaction phenotyping analysis of NCN was determined using a panel of human recombinant cytochrome P450 enzymes, while the inhibitory effects of CYP specific inhibitors on NCN 4-hydroxylation in HLMs were assessed. The final concentration of each human recombinant CYP enzyme in the incubation system was 5 nM. Briefly, each sample was co-incubated with NCN at 37 °C for 30 min, the formation rate of HNCN was determined to assess the metabolic specificity of NCN.
(§3) Gaussian program conducted a GMMX conformational analysis using a DFT/B3LYP/6-31G(d) pre-optimized 3D geometry. The resulting GMMX conformers were optimized at B3LYP/6-31G(d) level. Moreover, all conformers were real minima, as no imaginary vibrational frequencies were found. The energy ranking was performed to find the minimum energy conformer. The minima conformer was optimized at B3LYP /6-311G(d,p) level. The molecular orbital energy levels and electrostatic potential (ESP) were calculated at the DFT/B3LYP/6-311G(d,p) level.
(§4) Frontier orbital and ESP were depicted by Multiwfn (Lu and Chen 2011) and VMD […]
(§5) 1.8. Enzyme kinetic analysis
(§6) The kinetic parameters of NCN 4-hydroxylation in HLMs were determined by performing a set of hydroxylation kinetic assays. Kinetic parameters (K m and Vmax) for NCN 4-hydroxylation were fitted by the following equation (a): […]

Substrate in series [2]: O=C1c2cccc3cccc(c23)C(=O)N1CC1CC1
Briefly: Enzyme kinetic analysis of NCN 4-hydroxylation in HLMs. It counts as biochemical, human. Conditions: other: NCN 4-hydroxylation, enzyme source HLMs; 37.0 °C. The procedure: as §1, §2, §3, §4, §5, §6

B1: CYP3A4 (Homo sapiens) (protein)
chain: MALIPDLAMETWLLLAVSLVLLYLYGTHSHGLFKKLGIPGPTPLPFLGNILSYHKGFCMFDMECHKKYGKVWGFYDGQQPVLAITDPDMIKTVLVKECYSVFTNRRPFGPVGFMKSAISIAEDEEWKRLRSLLSPTFTSGKLKEMVPIIAQYGDVLVRNLRREAETGKPVTLKDVFGAYSMDVITSTSFGVNIDSLNNPQDPFVENTKKLLRFDFLDPFFLSITVFPFLIPILEVLNICVFPREVTNFLRKSVKRMKESRLEDTQKHRVDFLQLMIDSQNSKETESHKALSDLELVAQSIIFIFAGYETTSSVLSFIMYELATHPDVQQKLQEEIDAVLPNKAPPTYDTVLQMEYLDMVVNETLRLFPIAMRLERVCKKDVEINGMFIPKGVVVMIPSYALHRDPKYWTEPEKFLPERFSKKNKDNIDPYIYTPFGSGPRNCIGMRFALMNMKLALIRVLQNFSFKPCKETQIPLKLSLGGLLQPEKPVVLKVESRDGTVSGA
notes: purchased Cypex
The Km is the concentration of substrate that gives half-maximal velocity. With B1, in series [1], the Michaelis-Menten constant (Km) is 4.27 ± 0.45 µM and the kcat amounted to 10.01 nmol/min/nmol P450.

B2: human liver microsomes (HLMs) (Homo sapiens) (protein)
chain: MALIPDLAMETWLLLAVSLVLLYLYGTHSHGLFKKLGIPGPTPLPFLGNILSYHKGFCMFDMECHKKYGKVWGFYDGQQPVLAITDPDMIKTVLVKECYSVFTNRRPFGPVGFMKSAISIAEDEEWKRLRSLLSPTFTSGKLKEMVPIIAQYGDVLVRNLRREAETGKPVTLKDVFGAYSMDVITSTSFGVNIDSLNNPQDPFVENTKKLLRFDFLDPFFLSITVFPFLIPILEVLNICVFPREVTNFLRKSVKRMKESRLEDTQKHRVDFLQLMIDSQNSKETESHKALSDLELVAQSIIFIFAGYETTSSVLSFIMYELATHPDVQQKLQEEIDAVLPNKAPPTYDTVLQMEYLDMVVNETLRLFPIAMRLERVCKKDVEINGMFIPKGVVVMIPSYALHRDPKYWTEPEKFLPERFSKKNKDNIDPYIYTPFGSGPRNCIGMRFALMNMKLALIRVLQNFSFKPCKETQIPLKLSLGGLLQPEKPVVLKVESRDGTVSGA
notes: tissue Bioreclamation IVT lot No. X008067; host or cells: pooled human liver microsomes from 50 donors
B2: in series [2], the Km worked out at 5.52 ± 0.52 µM.

The values above are taken from article PMC12101129, “An optimized CYP3A4-activatable fluorogenic sensor for in situ functional imaging and multi-dimensional inhibitor assessment” (Chemical Science, 2025).
